Test results from article PMC12136788.
This is one part of the list.

B1: ENSG00000198589:be:win_4451|CDS|ENSG00000198589|bound_else_gene|NA|bound_elsewhere_windowed (ssRNA)
RNA: GGGAGUUCUACAGUCCGACGAUCCUGCAGCGAAGAGCCCAGUGGACAUUGUGACUGGCGGUAUAUCUCCAGUAAGAGAUCUUGACAGGCUUCUACAGGACAUGGAUAUUAAUCGGCUUAGGGCAGUUGUUUUCAGAGACAUAGCAACAGAGGAUUGAGCAUCA
B2: chr1:173887777:173887878:+|3pUTR|ENSG00000185278|unk|FALSE|unique (ssRNA)
RNA: GGGAGUUCUACAGUCCGACGAUCAAAGAGAUUUGGCAGAGGGACAGGUUGUACCUGCACUGGUGAACCAUCUGUGAGAAUGUUAGUCAUGUGCUCCUUUCCUGAGAUUGCUUUGUGGUAUGUGAAAAGGUGGGUAGAAAAGAACAACAGAGGAUUGAGCAUCA
B3: ENSG00000136451:be:win_2451|3pUTR|ENSG00000136451|bound_else_gene|NA|bound_elsewhere_windowed (ssRNA)
RNA: GGGAGUUCUACAGUCCGACGAUCUUUAAAUUGGAAGACGCUGGAGGCACUGGGAUGUGAUAUGCCCCUCUCUCUCCCAAUCAGAGCCUGUUGAUAUUACAACAGGGACAGAUGUGUUAGUUGCUCACUAGAGUUUAUGUCUUACAACAGAGGAUUGAGCAUCA
B4: chr5:173956200:173956301:+|3pUTR|ENSG00000113742|unk|total|mutant (ssRNA)
RNA: GGGAGUUCUACAGUCCGACGAUCCCCCUUCCUCAACCUCUUCACGCUGGCAUGUCCUUUUGCCGCAGUCUGUAACUUAACUACCGUAUAAUGAAAAGAAUGACCUAUAAUACCGGUGUUUUGCCGAUUCUUGUGUCACUGCAACAACAGAGGAUUGAGCAUCA
B5: chr1:93346344:93346492:+|5pUTR|ENSG00000117505|unk|FALSE|unique (ssRNA)
RNA: GGGAGUUCUACAGUCCGACGAUCGCCGCUCAAAUUUCCGGACCACCGCGCUUUCCCCUCCUCAGCCUGGGCUGUGCUCUCUCUAGAAUCCUCGGGCCCCCACUUUCUUCCCAAACUCAUCCUAAAUCUCUCACACACGCGAGUCAACAGAGGAUUGAGCAUCA
B6: chr11:101890673:101891278:-|three_prime_utr|ENSG00000187151|control|control|control (ssRNA)
RNA: GGGAGUUCUACAGUCCGACGAUCGUAAUGCAAGUUCUACAAUGAUAAUAUAUUAAAGAUUUUUAAAAGUUUAUCUUUUCACUUAGUGUUUCAAACAUAUUAGGCAAAAUUUAACUGUAGAUGGCAUUUAGAUGUUAUGAGUUUCAACAGAGGAUUGAGCAUCA
B7: chr7:114979563:114979664:+|CDS|ENSG00000135272|unk|total|mutant (ssRNA)
RNA: GGGAGUUCUACAGUCCGACGAUCCCAACCUCAGCGCUUGCCUCAGCUUCAGACUUCAGCCCAGGUGCCAAGUGGUGAGGAAACCGGCAAGAUAAAGAACGGCCACACAGGUCUGAGCAAUGGAAAUGGAAUUCACCACGGGGCCAACAGAGGAUUGAGCAUCA
B8: chr1:17067390:17067767:-|3pUTR|ENSG00000117115|msi1|total|mutant (ssRNA)
RNA: GGGAGUUCUACAGUCCGACGAUCCCCAACAUGCAAAGCCCACAUUUAAAGGCCAGCCUCUGCCCCUUCAGUGAUGCGCUCUUCCGAAAUGCCAGUCCACUAUAUUCAGAAAUCCGCAGGGCACAAAACUUCCAGCAAGUCACUCAACAGAGGAUUGAGCAUCA
B9: chr1:93152962:93153063:-|3pUTR|ENSG00000117500|msi1|total|mutant (ssRNA)
RNA: GGGAGUUCUACAGUCCGACGAUCGCUGGAAUUCUUGAUGAGCAAUAAUGAUAACCAGAGAGUGAUUUCAUUUACACUCACCGCCGUAUAAAAAGAGAUACAUUUCCCUCUCCGGCCCCUGGGAGAAGAGCAGCUCCGAUUUCCCAACAGAGGAUUGAGCAUCA
B10: ENSG00000124766:be:win_2851|3pUTR|ENSG00000124766|bound_else_gene|NA|bound_elsewhere_windowed (ssRNA)
RNA: GGGAGUUCUACAGUCCGACGAUCUAAUCAGAUGCCAUUUUAUAUGUGGACGUAUUUAUACUGGCCAAACAUAUUUUUUCUUUUGUCCCUUUUUUUCUUUCCUUUCUUUUUACUUCCUUUAUUUCUUUAUUCCUUCCUUUUCCUCAACAGAGGAUUGAGCAUCA
B11: chr13:108210031:108210147:-|CDS|ENSG00000174405|unk|FALSE|unique (ssRNA)
RNA: GGGAGUUCUACAGUCCGACGAUCAUGGUUAAUAAUAAAAAGCUAGGGCAUGAGACUCUGAGAAAGAGGUAUGAGAUUCUUAGUAGUAUUUUUACACCAAUUCCAGGUAGAAUAGAAAUAGUGCAGAAAACACAAGCUCAUACUCAACAGAGGAUUGAGCAUCA
B12: chr12:129073877:129075059:-|CDS|ENSG00000151952|control|control|control (ssRNA)
RNA: GGGAGUUCUACAGUCCGACGAUCACCUUCACCGCCGUCUCCUCAGACGACGAGUACCCCACCAGGAACUCCAUCGUGAUGAGUAGCGAGGAUGACAUUAAGUGGGUCUGCCAGGAUCUGGACCCUGGGGACUGCAAAGAGCUGCAACAGAGGAUUGAGCAUCA
B13: chr14:101901747:101901860:+|CDS|ENSG00000078304|unk|FALSE|unique (ssRNA)
RNA: GGGAGUUCUACAGUCCGACGAUCCUGGCCAAAGACUCACAGUCCAAAAGAAGUAAUGUUCUUAAACGAAUUAGAAGAGAUUUUAGAUGUCAUUGAACCAUCAGAAUUUGUGAAGAUCAUGGAACCCCUCUUCCGGCAGUUGGCCAACAGAGGAUUGAGCAUCA
B14: chr4:48498090:48498191:-|3pUTR|ENSG00000075539|msi1|FALSE|bound_elsewhere (ssRNA)
RNA: GGGAGUUCUACAGUCCGACGAUCAGGAAGCCUGAAGACUGACUACCAAAACAUGCAAUAUACUUAUUCACUGUCUAAGUCUGUAGUAUAACAUGAACUGGAGUCUCUAUCCUUUUCUAAAAUCGCAUUUUGUAAGAAAAGAAACAACAGAGGAUUGAGCAUCA

target: MSI1 full-length (mouse, UniProt Q61474 1-362); experiment: nsRBNS (natural sequence RNA bind-n-seq); RBNS binding buffer (assumed for nsRBNS): 25 mM Tris pH 7.5, 150 mM KCl, 3 mM MgCl2, 0.01% Triton X-100, 500 ug/ml BSA, 20 U/ml SUPERase-In, 4 C; UNK is unkempt and MSI1 is Musashi-1; names of the RNAs are library labels; protein concentration not given here; high values mean tight binding
Chain of UniProt Q61474 (Q61474 whole entry): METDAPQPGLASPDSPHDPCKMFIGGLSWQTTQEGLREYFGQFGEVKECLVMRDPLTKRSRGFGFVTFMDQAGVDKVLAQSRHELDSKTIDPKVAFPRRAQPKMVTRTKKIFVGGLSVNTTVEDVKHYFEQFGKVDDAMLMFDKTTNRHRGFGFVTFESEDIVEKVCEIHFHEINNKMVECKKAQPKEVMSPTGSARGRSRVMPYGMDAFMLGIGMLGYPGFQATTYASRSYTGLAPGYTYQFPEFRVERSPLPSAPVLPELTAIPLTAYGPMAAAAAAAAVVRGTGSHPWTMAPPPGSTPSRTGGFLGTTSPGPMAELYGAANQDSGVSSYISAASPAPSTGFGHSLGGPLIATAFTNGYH

| Binder | binding signal [enrichment R] |
| --- | --- |
| B1 | 0.53 |
| B2 | 0.807 |
| B3 | 1.47 |
| B4 | 0.862 |
| B5 | 1.22 |
| B6 | 3.72 |
| B7 | 0.447 |
| B8 | 0.72 |
| B9 | 0.498 |
| B10 | 4.25 |
| B11 | 4.73 |
| B12 | 0.538 |
| B13 | 1.68 |
| B14 | 0.279 |
